# Experimental data from PubChem BioAssay AID1508624 (National Center for Advancing Translational Sciences (NCATS), 2021).
# The campaign covered roughly 48,000 compounds. About 120 (0.25%) were called active. Inconclusive results (about 4%) are left out. Calls come from the whole dose curve; as a rule, active = well fitted activation curve with a large enough effect; inconclusive = small, poorly fitted or top-dose-only effect, or another doubt; inactive = no such curve, though single readings can be large or run the other way. The list shows a part of the results.
# Assay: Primary qHTS for Identification of Small Molecule Activators of Huntingtin-Antisense Promoter Activity; note: nearly all actives have a fitted effect of over 55% in size
# Settings: HEK293 HTT-AS promoter firefly luciferase reporter, 24 h; series mostly up to 57.5 µM; activity change, positive = activation: at the top concentration
# How it was run: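 HEK293 luciferase promoter-reporter cells (2,500/well) plated 24 h, then compounds added at up to 57.5 uM final for 24 h at 37 °C. Firefly luminescence by Dual-Glo, normalized to vehicle (0%) and zero RLU (-100%).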
row,SMILES,"activity change, positive = activation"
1,CCS(=O)(=O)N1CC(=O)N(c2cccc(Cl)c2C)C(C)(C(=O)NC2CCCCC2)C1 (centres undefined),inactive: -10.3%
2,CCN(CCCNC(=O)c1cc2cc3ccc(C)cc3nc2s1)c1ccccc1,inactive: -17%
3,CCCN(c1ccccc1CC)S(=O)(=O)c1ccc2c(c1)CC(C)N2C(=O)C1CC1 (centres undefined),inactive: -58%
4,CCCc1c(OCCCCc2nn[nH]n2)ccc(C(C)=O)c1O,inactive: -10.1%
5,COCCNC(=O)CCCN1C(=O)c2ccccc2Sc2ncccc21,inactive: -8.44%
6,Cc1ccc(NC(=O)c2oc3ccc(S(=O)(=O)N(C)C4CCCCC4)cc3c2C)cc1Cl,inactive: -13.1%
7,O=S(=O)(c1cccc(F)c1)N1CCC(c2nc3ccccc3s2)CC1,inactive: 12.1%
8,Cc1cc(C)cc(NS(=O)(=O)c2ccc3c(c2)NC(=O)C(C)S3)c1 (centres undefined),inactive: -28%
9,CCOC(=O)c1c(C)oc2nc(C)nc(Nc3ccc(CC)cc3)c12,inactive: -20.2%
10,CCn1c(C(=O)N2CCC(C(=O)NCCc3ccc(OC)cc3OC)CC2)cc2sccc21,inactive: -30.8%
11,Cc1c(C(=O)NCc2ccccc2Br)oc2c1-c1[nH]ncc1CC2,inactive: 11.3%
12,CCN1CCN(c2c(S(=O)(=O)c3ccc(OC)cc3)cnc3cc(OC)c(OC)cc23)CC1,inactive: -10.3%
13,CCc1ccc(S(=O)(=O)c2nnn3c2nc(NC2CCCCCC2)c2sccc23)cc1,inactive: -14.3%
14,COc1cccc2c1Oc1ncccc1N(C(=O)Nc1ccc(F)c(Cl)c1)C2,inactive: -25%
15,CCOC(=O)C(CC)Sc1ccc2nnc(CCNS(=O)(=O)c3ccc(C)cc3)n2n1 (centres undefined),inactive: -6.76%
16,CCOCCCNC(=O)C1CCC(CNS(=O)(=O)c2ccc(NC(C)=O)cc2)CC1 (centres undefined),inactive: -2.15%
17,Cc1ccc(C)c(CN2C(=O)c3ccccc3S(=O)c3ccc(C(=O)NCc4ccccc4)cc32)c1 (centres undefined),inactive: -17.3%
18,COc1ccc(NC(=O)c2ccc(-c3nc(CSc4ccccc4)c(C)o3)cc2)cc1OC,inactive: -23%
19,COc1ccccc1Cc1nc2ccccc2[nH]c1=O,inactive: 3.23%
20,CCOC(=O)c1cc2c(=O)n3ccccc3nc2n(CCCOC)c1=NC(=O)C(C)Oc1ccccc1 (centres undefined),inactive: 4.82%
21,COc1ccc(CNC(=O)CN(c2ccccc2)S(=O)(=O)N(C)C)cc1,inactive: -2.44%
22,Cc1ccc(CNC(=O)c2ccc(Cn3c(SCc4ccccc4F)nc4cccnc43)cc2)cc1,inactive: -6.84%
23,CN(C)S(=O)(=O)c1ccc(C(=O)N2CC(=O)Nc3ccc(Br)cc3C2c2ccc(F)cc2)cc1 (centres undefined),inactive: -0.345%
24,CC1CCN(C(=O)Cn2c(=O)oc3cc(S(=O)(=O)N4CCCCC4)ccc32)CC1,inactive: -16.5%

row,SMILES,"activity change, positive = activation"
1,CCOc1cc(CNc2ccc(O)cc2)ccc1OCc1ccc(Cl)cc1,inactive: 6.51%
2,CCOc1ccc(CC(=O)NCCc2sc3nc(-c4ccc(OC)cc4)nn3c2C)cc1,inactive: -16%
3,CCN1CCN(c2c(S(=O)(=O)c3ccc(C)c(C)c3)cnc3cc(OC)c(OC)cc23)CC1,inactive: -18.9%
4,Cc1cccc(-n2c(=O)c3c4c(sc3n3cnnc23)CCCC4)c1,inactive: -2.53%
5,Cc1cc(C)cc(NC2=CC(c3cccc(F)c3)N(c3cc(C)cc(C)c3)C2=O)c1 (centres undefined),inactive: 5.26%
6,Cc1cc(=O)n(Cc2cccc(Cl)c2)c2c1c(C)nn2-c1ccccc1,inactive: -17.6%
7,CCN(CC)C(=O)c1sc2c(c1C)c(=O)n(-c1ccccc1)c(=O)n2CC(=O)Nc1ccc(C)cc1C,inactive: -9.97%
8,CCCCSc1ncnc2c1c(-c1ccccc1)cn2-c1cccc(F)c1,inactive: -18.7%
9,CCN(CC)S(=O)(=O)c1nnc(NC(=O)COc2ccc(Cl)cc2)s1,inactive: -24.8%
10,CC(=O)Nc1cc(NC(C)=O)cc(-c2nc3ccccc3[nH]2)c1,inactive: -93.8%
11,CCOC(=O)Cn1cnc2onc(-c3ccc(F)cc3)c2c1=O,inactive: -4.06%
12,COc1ccc(C(CNC(=O)COc2ccc(Cl)c(C)c2)N2CCOCC2)cc1 (centres undefined),inactive: -21.4%
13,CCC1CCCCN1CCCNC(=O)c1cc2c(Cl)nc3ccccc3c2s1 (centres undefined),inactive: -30.3%
14,COC(=O)c1ccccc1NC(=O)Cn1c(=O)n(Cc2ccc(C(=O)NCc3ccc4c(c3)OCO4)cc2)c(=O)c2ccccc21,inactive: -5.14%
15,CCOC(=O)c1c(C)oc2ncnc(Nc3ccc(OCC)cc3)c12,inactive: -5.96%
16,Cc1ccc(C)c(N2C(=O)N(Cc3cc(=O)n4ccccc4n3)c3ccccc3S2(=O)=O)c1,inactive: -38.2%
17,COc1cccc(C(=O)c2sc3nc(-c4ccccc4)cc(C(F)(F)F)c3c2N)c1,inactive: -17.8%
18,CCc1cccc(NC(=O)Nc2csc3c2CCCC3)c1,inactive: -13.4%
19,O=C(CN1C(=O)CCc2cc(S(=O)(=O)N3CCOCC3)ccc21)NCc1ccc(F)cc1,inactive: -14.5%
20,Cc1ccc(CNC(=O)c2ccc3c(c2)nc(C)n3-c2cc(C)cc(C)c2)cc1,inactive: -15%
21,COc1cccc(NC(=O)CNC(=O)Cn2c(C)cc3ccccc3c2=O)c1,inactive: -2.4%
22,Cc1ccc(N(CC(=O)NCCc2ccccc2)S(=O)(=O)N(C)C)cc1,inactive: -12.4%
23,Cn1ccc2cc(S(=O)(=O)N3CCC(C(=O)NCCc4ccccc4)CC3)ccc21,inactive: -11.3%
24,N#Cc1ccccc1NC(=O)Cn1cnc2onc(-c3cccc(F)c3)c2c1=O,inactive: 4.63%

row,SMILES,"activity change, positive = activation"
1,CCn1cc(C(=O)N2CCN(c3cccc(Cl)c3)CC2)c(=O)c2cc(S(=O)(=O)N3CCCCC3)ccc21,"inactive: -7.87% [at 11.5 µM, percent change from vehicle, -100% = no light]"
2,COc1ccc(OC)c(NC(=O)Cn2c(=O)n(Cc3ccccc3)c(=O)c3ccccc32)c1,inactive: 0%
3,COc1ccc(OC)c(NC(=O)N2CCN(S(=O)(=O)c3ccc4c(ccn4C)c3)CC2)c1,inactive: -22.6%
4,COc1ccc(C(CNC(=O)c2oc3ccc(C)cc3c2C)N2CCOCC2)cc1 (centres undefined),inactive: -8.55%
5,COc1cc(OC)cc(C(=O)Nc2ccc3nc(N4CCCCC4)cc(C)c3c2)c1,inactive: -10%
6,CCCn1c(-c2ccc(S(=O)(=O)N3CCOCC3)cc2)csc1=Nc1ccc(OCC)cc1,inactive: -25.9%
7,CC(C)Cn1c(=O)c2ccccc2n2c(CCC(=O)N3CCN(c4ccccc4F)CC3)nnc12,inactive: -2.77%
8,Cc1ccc2nc(-c3ccc(O)cc3)c(Nc3ccc4c(c3)OCCO4)n2c1,inactive: 0.832%
9,CCCSCCCNC(=O)C1CCN(c2nn3cc(-c4ccc(F)cc4)nc3s2)CC1,inactive: 1.09%
10,O=C(NCc1ccccc1Cl)C(=O)NCC(c1cccs1)S(=O)(=O)c1cccs1 (centres undefined),inactive: -37%
11,CN(C)C(=N)N=C(N)N,inactive
12,O=C(c1cc(-c2ccc(Br)cc2)n[nH]1)N1CCN(S(=O)(=O)c2ccc(Br)cc2)CC1,inactive: -29.1%
13,CCC(=O)N1N=C(c2ccc(OC)cc2)CC1c1cn(-c2ccccc2)nc1-c1cccs1 (centres undefined),inactive: -17.5%
14,CC(=O)N1c2ccc(S(=O)(=O)N3CCN(c4ccc(C)cc4C)CC3)cc2CC1C (centres undefined),inactive: -52.6%
15,O=C(Cn1ccn(-c2ccc(F)cc2)c(=O)c1=O)NCCc1ccccc1,inactive: -16.6%
16,CCOc1ccc(N(c2nc(-c3ccc(OC)c(OC)c3)no2)c2nc(-c3ccc(OC)c(OC)c3)no2)cc1,inactive: 17%
17,CCOC(=O)c1cnc2ccc(C)cc2c1Nc1ccc(OCc2ccccc2Cl)cc1,inactive: -18.6%
18,COC(=O)CSc1nc2c(cnn2-c2ccc(F)cc2)c(=O)[nH]1,inactive: -0.821%
19,COc1ccc2oc(-c3ccc(C)c(NC(=O)c4cccnc4)c3)nc2c1,inactive: 9.07%
20,COc1cc(OC)c(NC(=O)CSc2nccn2C)cc1Cl,inactive: -5.02%
21,CC1CCN(c2oc(-c3cccs3)nc2S(=O)(=O)c2ccc(Cl)cc2)CC1,inactive: -19.4%
22,Cc1ccc(CNC(=O)c2ccc(-n3c(C)cc4c3CCCC4)cc2)cc1,inactive: -11.2%
23,Cc1ccc(OCC(=O)Nc2ccc3nc(SCC(=O)N4CCCC4)sc3c2)cc1,inactive: 3.82%
24,O=C(CSc1nc2cc(C(=O)NC3CCCC3)ccc2c(=O)n1CC1CCCO1)c1ccc(F)cc1 (centres undefined),inactive: -0.935%

row,SMILES,"activity change, positive = activation"
1,Cc1ccc(C)c(S(=O)(=O)c2cn(Cc3ccccc3)c3cc(F)c(F)cc3c2=O)c1,inactive: -6.49%
2,CNC(=O)c1ccc2c(c1)N=C(C)c1cc(C)ccc1S2,inactive: -23.6%
3,CCOC(=O)c1c(SCC(=O)Nc2nc3ccc(C)cc3s2)nc(=O)[nH]c1C,inactive: -3.41%
4,Cc1cccc(CSc2cn(CC(=O)N3CCCCC3)c3ccccc23)c1,inactive: 3.6%
5,Cc1cc(C)c2sc(N(Cc3cccnc3)C(=O)CCS(=O)(=O)c3ccccc3)nc2c1,inactive: -13%
6,CC(C)(C)C1CCc2oc3ccc(NS(=O)(=O)c4cc(Cl)ccc4Cl)cc3c2C1 (centres undefined),inactive: -18.8%
7,O=C(Cn1cc(SCc2cccc(F)c2)c2ccccc21)N1CCOCC1,inactive: 24.9%
8,NC(=O)c1ncn([C@@H]2O[C@H](CO)[C@@H](O)[C@@H]2O)n1,inactive: -9.94%
9,CCOc1ccc(-n2c(=O)c3c(C)c(C)sc3n(CC(=O)c3ccccc3)c2=O)cc1,inactive: 3.94%
10,CCN(CC)CCCNC(=O)c1c(C)oc2ncn(CC(C)C)c(=O)c12,inactive: -5.5%
11,CCc1ccc(-n2nc(C)c3c(C)cc(=O)n(CC(=O)Nc4ccc(C)c(F)c4)c32)cc1,inactive: 6.3%
12,CCCCN(C)S(=O)(=O)c1cc(-c2nnc3c4ccccc4c(C)nn23)ccc1C,inactive: 21.4%
13,CN(C)c1ccc(NC(=O)CCSc2nc(-c3ccco3)cc(C(F)(F)F)n2)cc1,inactive: -3.16%
14,COc1cccc(OC)c1-c1cc(C(=O)NC2(C(=O)O)C3CC4CC(C3)CC2C4)nn1-c1ccnc2cc(Cl)ccc12 (centres undefined),inactive: -7.94%
15,CC1CCc2c(sc(NC(=O)CCCOc3ccc(C(C)(C)C)cc3)c2C(N)=O)C1 (centres undefined),inactive: -16%
16,COc1cc(Br)c(C2CC(=O)Nc3cc(OC)c(OC)c(OC)c32)cc1OC (centres undefined),inactive: -26.9%
17,CCc1ccc(NC(=O)CC2C(=O)OCCN2CC)cc1 (centres undefined),inactive: -19.3%
18,Cc1oc(-c2cccc(Br)c2)nc1CN1CCC(C(=O)NCCc2ccc(Cl)cc2)CC1,inactive: 10.2%
19,CCOC(=O)c1ccc(N2C(=O)c3n[nH]c(-c4cccs4)c3C2c2cccc(F)c2)cc1 (centres undefined),inactive: -25%
20,CCOc1ccccc1NC(=O)C(CC(C)C)NS(=O)(=O)c1ccc2c(c1)CCN2C(C)=O (centres undefined),inactive: 0%
21,CCc1ccccc1NC(=O)Cn1ncc2c(C)n(Cc3ccccc3F)c(C)c2c1=O,inactive: -15%
22,CC(C)CNC(=O)CCSc1nc(-c2ccc3c(c2)OCO3)cc(C(F)(F)F)n1,inactive: -12.9%
